Tested on: human immunodeficiency virus-associated neurological dysfunction
Test: Cognitive function in patients with HIV-associated neurological dysfunction
Conditions: same patient, after 6 weeks

OC[C@@H]1CC[C@H](n2cnc3c(O)ncnc32)O1 [2',3'-dideoxyinosine]
speed of completion of the Trailmaking A test (from 25): 18 s | speed of completion of the Trailmaking B test (from 96): 80 s
